This data set concerns Caco-2 cell monolayer. The settings on record: for ER (efflux ratio, Papp(BL→AP)/Papp(AP→BL)) / Papp (AP→BL) / Papp (BL→AP): constituent of DS 100 μg/mL, 180 min; for Papp (AP→BL) / Papp (BL→AP): from UPLC-ESI-MS/MS peak areas; for Differential metabolite TSA vs. DS: significantly accumulated in TSA.
Where [1] appears, read: VIP ≥ 1, p < 0.05, fold change >2.0 or < 0.5.

Turning to `O=c1c(-c2ccc(O)cc2)coc2cc(O[C@@H]3O[C@H](CO)[C@H](O)[C@H](O)[C@H]3O)cc(O)c12` [Genistein-7-O-galactoside], the “ER (efflux ratio, Papp(BL→AP)/Papp(AP→BL))” value came out at 4.22; the “Papp (AP→BL)” value is reported as 2.87 10^−6 cm/s; the “Papp (BL→AP)” value is 12.10 10^−6 cm/s.
As to `COc1c(O)c([C@@H]2O[C@H](CO)[C@@H](O)[C@H](O)[C@H]2O)c2oc(-c3ccc(O)cc3)cc(=O)c2c1O` [Hispidulin-8-C-glucoside], the “ER (efflux ratio, Papp(BL→AP)/Papp(AP→BL))” value is 0.16.
Turning to `O=C(c1ccc(O)cc1)c1c(O)cc(O)cc1O` [Iriflophenone], the “ER (efflux ratio, Papp(BL→AP)/Papp(AP→BL))” value turned out to be 0.17; the “Papp (AP→BL)” value is reported as 2.70 10^−6 cm/s; the “Papp (BL→AP)” value is reported as 0.46 10^−6 cm/s.
As to `COc1ccc(-c2coc3cc(O[C@@H]4O[C@H](CO)[C@@H](O)[C@H](O)[C@H]4O)c(OC)c(O)c3c2=O)cc1O` [Iristectorin A], the “ER (efflux ratio, Papp(BL→AP)/Papp(AP→BL))” value was determined as 5.31; the “Papp (AP→BL)” value is recorded as 2.06 10^−6 cm/s; the “Papp (BL→AP)” value is given as 10.94 10^−6 cm/s.
With `COc1cc(-c2cc(=O)c3c(O)c(OC)c(O[C@@H]4O[C@H](CO)[C@@H](O)[C@H](O)[C@H]4O)cc3o2)ccc1O` [Jaceosidin-7-O-glucoside], the “ER (efflux ratio, Papp(BL→AP)/Papp(AP→BL))” value was 7.33; the “Papp (AP→BL)” value is given as 1.99 10^−6 cm/s; the “Papp (BL→AP)” value is recorded as 14.59 10^−6 cm/s. For the same molecule, the “Differential metabolite TSA vs. TSB” value under setting [1] is “upregulated”.
`O=c1c(O)c(-c2ccc(O[C@@H]3O[C@H](CO)[C@@H](O)[C@H](O)[C@H]3O)cc2)oc2cc(O)cc(O)c12` [Kaempferol-4′-O-glucoside]: the “ER (efflux ratio, Papp(BL→AP)/Papp(AP→BL))” value is 0.18; the “Papp (AP→BL)” value is reported as 1.81 10^−6 cm/s; the “Papp (BL→AP)” value is 0.33 10^−6 cm/s.
For `O=c1cc(-c2ccc(O)c(O[C@@H]3O[C@H](CO)[C@@H](O)[C@H](O)[C@H]3O)c2)oc2cc(O)cc(O)c12` [Luteolin-3′-O-glucoside], in that order: 6.27, 0.71 10^−6 cm/s and 4.45 10^−6 cm/s.
The matching figures for `O=c1c(O[C@@H]2O[C@H](CO)[C@H](O)[C@H](O)[C@H]2O)c(-c2cc(O)c(O)c(O)c2)oc2cc(O)cc(O)c12` [Myricetin-3-O-galactoside]: 2.63, 6.79 10^−6 cm/s and 17.86 10^−6 cm/s.
Take `O=c1c(O[C@@H]2O[C@H](CO)[C@@H](O)[C@H](O)[C@H]2O)c(-c2cc(O)c(O)c(O)c2)oc2cc(O)cc(O)c12` [Myricetin-3-O-β-D-glucoside]: the “ER (efflux ratio, Papp(BL→AP)/Papp(AP→BL))” value worked out at 2.36; the “Papp (AP→BL)” value is recorded as 7.02 10^−6 cm/s; the “Papp (BL→AP)” value is recorded as 16.60 10^−6 cm/s.
`COc1ccccc1C(=O)O` [O-anisic acid]: the “ER (efflux ratio, Papp(BL→AP)/Papp(AP→BL))” value stood at 5.92. Also, under setting [1], the “Differential metabolite TSA vs. DS” value was “upregulated”.
In the case of `COc1c(O)cc2oc(-c3ccc(O)c(O)c3)c(O[C@@H]3O[C@H](CO[C@@H]4O[C@@H](C)[C@H](O)[C@@H](O)[C@H]4O)[C@@H](O)[C@H](O)[C@H]3O)c(=O)c2c1O` [Patuletin-3-O-rutinoside], the “ER (efflux ratio, Papp(BL→AP)/Papp(AP→BL))” value was found to be 6.69; the “Papp (AP→BL)” value is 0.67 10^−6 cm/s; the “Papp (BL→AP)” value is listed as 4.48 10^−6 cm/s.
Turning to `COc1cc2oc(-c3ccc(O)c(O)c3)cc(=O)c2c(O)c1O[C@@H]1O[C@H](CO)[C@@H](O)[C@H](O)[C@H]1O` [Pedaliin], the “ER (efflux ratio, Papp(BL→AP)/Papp(AP→BL))” value amounted to 2.18; the “Papp (AP→BL)” value is reported as 6.37 10^−6 cm/s; the “Papp (BL→AP)” value is 13.90 10^−6 cm/s.
For `COc1cc(O[C@@H]2O[C@H](CO)[C@@H](O)[C@H](O)[C@H]2O)c2c(c1)O[C@H](c1ccc(OC)c(O)c1)CC2=O` [Persicoside], in that order: 3.75, 3.04 10^−6 cm/s and 11.41 10^−6 cm/s.
In the case of `COc1cc(-c2[o+]c3cc(O)cc(O)c3cc2O[C@@H]2O[C@H](CO)[C@@H](O)[C@H](O)[C@H]2O)cc(O)c1O` [Petunidin-3-O-glucoside], the “ER (efflux ratio, Papp(BL→AP)/Papp(AP→BL))” value is recorded as 5.79; the “Papp (AP→BL)” value is given as 0.61 10^−6 cm/s; the “Papp (BL→AP)” value is given as 3.53 10^−6 cm/s.
As to `O=c1c(O)c(-c2ccc(O)c(O)c2)oc2cc(O[C@@H]3O[C@H](CO)[C@@H](O)[C@H](O)[C@H]3O)c(O)c(O)c12` [Quercetagitrin], the “ER (efflux ratio, Papp(BL→AP)/Papp(AP→BL))” value is 2.28; the “Papp (AP→BL)” value was 7.17 10^−6 cm/s; the “Papp (BL→AP)” value is recorded as 16.33 10^−6 cm/s.
The matching figures for `O=C(/C=C/c1ccc(O)cc1)OC[C@H]1O[C@@H](Oc2ccc(O)cc2)[C@H](O)[C@@H](O)[C@@H]1O` [Robustaside A]: 0.16, 11.59 10^−6 cm/s and 1.83 10^−6 cm/s.
For `COc1cc(-c2cc(=O)c3c(O)cc(O)cc3o2)cc(OC)c1O[C@@H]1O[C@H](CO)[C@@H](O)[C@H](O)[C@H]1O` [Tricin-4′-O-glucoside], in that order: 6.17, 3.11 10^−6 cm/s and 19.19 10^−6 cm/s.
The matching figures for `COc1cc(-c2cc(=O)c3c(O)cc(O[C@@H]4O[C@H](CO)[C@@H](O)[C@H](O)[C@H]4O)cc3o2)cc(OC)c1O` [Tricin-7-O-glucoside]: 2.98, 5.13 10^−6 cm/s and 15.30 10^−6 cm/s.
On to `C[C@@H]1O[C@@H](c2c(O)c([C@@H]3O[C@H](CO)[C@@H](O)[C@H](O)[C@H]3O)c(O)c3c(=O)cc(-c4ccc(O)cc4)oc23)[C@H](O)[C@H](O)[C@H]1O` [Violanthin], for which the “ER (efflux ratio, Papp(BL→AP)/Papp(AP→BL))” value is given as 0.16; the “Papp (AP→BL)” value was 3.29 10^−6 cm/s; the “Papp (BL→AP)” value was 0.53 10^−6 cm/s.
In the case of `CC(=O)OCC1=C[C@@H]2OC(=O)C3=CO[C@@H](O[C@@H]4O[C@H](CO)[C@@H](O)[C@H](O)[C@H]4O)[C@H]1[C@@H]32` [asperuloside], under setting [1], the “Differential metabolite TSA vs. DS” value is on record as “upregulated”.
On the same count and under the same terms, the value for `O=C(O)/C=C/c1ccc(O)c(O)c1` [caffeic acid] was “upregulated”; that for `O=c1cc(-c2ccccc2)oc2cc(O)cc(O)c12` [chrysin] was “upregulated”.
Consider Clausenaglycoside A, for which the “ER (efflux ratio, Papp(BL→AP)/Papp(AP→BL))” value came out at 0.15; the “Papp (AP→BL)” value is 7.70 10^−6 cm/s; the “Papp (BL→AP)” value is 1.15 10^−6 cm/s.
For Isotamarixin, in that order: 2.07, 6.93 10^−6 cm/s and 14.32 10^−6 cm/s.
For the molecule Nortrachelogenin-4-O-glucoside, the “ER (efflux ratio, Papp(BL→AP)/Papp(AP→BL))” value is 5.93; the “Papp (AP→BL)” value is reported as 0.59 10^−6 cm/s; the “Papp (BL→AP)” value is 3.50 10^−6 cm/s.
On to Rosmarinic acid-3′-O-glucoside, for which the “ER (efflux ratio, Papp(BL→AP)/Papp(AP→BL))” value was 0.14; the “Papp (AP→BL)” value was 3.35 10^−6 cm/s; the “Papp (BL→AP)” value is 0.48 10^−6 cm/s.

These data come from article PMC11833358 (Food Chemistry: X, 2025).
